Experimental data from paper PMC11997985, “Synthesis and In Vitro Profiling of Psilocin Derivatives: Improved Stability and Synthetic Properties” (Journal of Medicinal Chemistry, 2025).

Assay: Chemical stability in 1.0 M NaHCO3 and 1.0 M HCl
Details: 1 M HCl and 1 M NaHCO3

| SMILES | stability in acidic and basic concentrations |
| --- | --- |
| CN(C)CCc1c[nH]c2cccc(OCc3ccccc3)c12 [Compound 3, 4-Benzyloxy-N,N-dimethyltryptamine] | demonstrated stability |
| CN(C)CCc1c[nH]c2cccc(OC(=O)N3CCCCC3)c12.O=C(O)/C=C/C(=O)O [Compound 4k] | demonstrated stability |
| CN(C)CCc1c[nH]c2cccc(OP(=O)(O)O)c12 [Compound 8, 4-phosphoryloxy-N,N-dimethyltryptamine, reference compound] | demonstrated stability |
| CN(C)CCc1c[nH]c2cccc(OS(=O)(=O)O)c12 [Compound 6] | demonstrated stability |
